Laboratory results from the supplement of paper PMC3334620.
The full ranking holds about 33,000 sequences; the median of “E-score (-0.5 to 0.5)” is about -0.01, and the highest 2% start at about 0.26. Some of the results follow.

Target: Ste12 (UniProt P13574)
Test: PBM E-score (8-mer binding enrichment) (E-score (-0.5 to 0.5)); higher = stronger / more preferred TF binding; most listed sequences are background and not binding sites
Settings: protein concentration: 200 nM; construct: GST-DNA-binding domain
Method in brief: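 For each ungapped eight-base word taken together with its reverse complement, the Universal PBM Analysis Suite assigned an E-score. Binding data came from GST-tagged yeast transcription factors, applied at about 100-200 nM, on universal all-10-mer Agilent arrays made double-stranded by primer extension. Fluorescent anti-GST marked bound protein, and scans were normalised with masliner.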

| Sequence | PBM E-score |
| --- | --- |
| CTTCTTGA | 0.0821 |
| CTTTACAA | 0.204 |
| CTATCACC | -0.0719 |
| AGATCCCA | -0.16 |
| AGACGCTC | -0.143 |
| AAGGCTCC | -0.123 |
| CCGACCCC | -0.0867 |
| AACGAACG | 0.0641 |
| CTTGTCTA | 0.0321 |
| AAATACGT | 0.142 |
| CTCTGCGA | 0.0178 |
| CTCGTTAC | -0.175 |
| TATGTCGA | 0.00893 |
| AGATTGTC | -0.0744 |
| GGAGTCAA | 0.0563 |
| GGCGAATA | -0.0412 |
| GCACTAAA | 0.0115 |
| GTTAACGA | 0.0151 |
| CAGCTGGA | -0.092 |
| ACTGGACG | -0.136 |
| ACCAGAGA | 0.00409 |
| GATGATCA | 0.0307 |
| GCCATACA | 0.132 |
| ACTAATCG | 0.103 |

| Sequence | PBM E-score |
| --- | --- |
| GAGCACGA | 0.124 |
| CGCGCTAG | 0.0824 |
| ATCCACAC | -0.0961 |
| TACTTCCA | 0.0198 |
| AAGTGTCG | 0.093 |
| CGTCGGTC | 0.133 |
| TAGGTTCA | 0.0464 |
| CCCCTTGA | 0.0534 |
| AGCTAGAT | 0.0137 |
| ATAGGAGA | -0.063 |
| GGCCGTAA | -0.0729 |
| CGGCATGC | -0.026 |
| AGAATGCA | 0.0948 |
| CCGGAATA | 0.0345 |
| GTTAAGCA | -0.115 |
| GCAGACAC | 0.00338 |
| ATCAAATG | 0.123 |
| GTTAGCTA | 0.0536 |
| AATGTAAA | 0.269 |
| GTGGTTAA | 0.176 |
| GCGGGGAC | 0.191 |
| CGTCGTGC | 0.056 |
| AGGTATAA | 0.0586 |
| TGCCTACA | -0.157 |

| Sequence | PBM E-score |
| --- | --- |
| ACTAGGGG | -0.154 |
| AATCATCT | -0.0762 |
| AGATCGTG | 0.0231 |
| AAGGCCCA | -0.0384 |
| CACGCATG | -0.072 |
| CCTGGTCA | -0.016 |
| ATATGCTC | 0.0529 |
| ATACGCAT | 0.067 |
| TTCTGCAA | 0.182 |
| ACCTAGTA | -0.316 |
| AAGATAAG | 0.0214 |
| CACGGCGG | 0.00072 |
| CTATACGA | -0.125 |
| ACCTATCA | -0.0625 |
| CTGAGTCA | 0.0791 |
| AACCAAGT | 0.00958 |
| ATGTGACC | -0.00543 |
| ATGAGAGA | 0.00143 |
| GGGCTGTA | -0.0896 |
| TACCGGTA | -0.0278 |
| AGACGATA | -0.051 |
| AATGCGGA | -0.0654 |
| GGCCTTAA | 0.0816 |
| TCTGCCAA | -0.0109 |

| Sequence | PBM E-score |
| --- | --- |
| AAGCAGGA | 0.0216 |
| CCATATGG | -0.134 |
| GGTCCCAA | 0.018 |
| CGACTGGA | 0.0606 |
| AGACCTGC | -0.0444 |
| AACCGAAA | 0.164 |
| AAGACTTA | -0.0841 |
| AGTCTGCC | -0.171 |
| CCCCCAGC | -0.262 |
| CATACCGA | -0.0873 |
| GAAATTCC | -0.104 |
| ATGGTAAG | 0.0141 |
| ACCTACAA | 0.0183 |
| CTCGACTC | -0.0794 |
| GCGGACGC | -0.0691 |
| CCCATTGC | -0.00318 |
| CAAACATC | 0.192 |
| AAATAGTT | 0.0872 |
| AACGCGCC | -0.0769 |
| ACAGGTAC | -0.0471 |
| TATCAGGA | 0.135 |
| GAACGATC | -0.0508 |
| TCACTGGA | -0.0212 |
| CTACCCGC | -0.0854 |

| Sequence | PBM E-score |
| --- | --- |
| CCTCCCGA | -0.129 |
| GTCTGTAA | 0.261 |
| ATCACTGC | -0.0595 |
| CGCCTCCA | -0.0513 |
| ACAGTTCA | 0.0125 |
| GGATGGAC | -0.108 |
| CATTCTGA | 0.0007 |
| GCGCTCAA | -0.258 |
| CACCCTAA | 0.0846 |
| CTGCCAAC | -0.1 |
| ACTTAGGC | -0.151 |
| ACCCCGTC | -0.0261 |
| TAAATGAA | 0.185 |
| GGCCCAAC | -0.145 |
| GCTCTGAC | -0.0116 |
| ACCACATG | 0.039 |
| CCGGAACA | 0.0655 |
| ACGGCCAG | -0.177 |
| AAAGTCAA | 0.189 |
| AGTTAAAC | 0.00327 |
| AACCATGC | 0.0898 |
| AGTCCAGG | -0.207 |
| AACAAGAT | 0.0602 |
| CAACCGCG | 0.0561 |

| Sequence | PBM E-score |
| --- | --- |
| CGATGCAC | -0.194 |
| CTATCTAA | 0.0807 |
| GCAGGCAA | -0.137 |
| AAATCAAT | 0.071 |
| CGGCCCCG | 0.0097 |
| AGGGTTAC | -0.237 |
| CCTTATTC | -0.101 |
| ACAACGTA | -0.201 |
| ACACCGCC | -0.0092 |
| AGAACGGG | -0.0677 |
| CTGAAAAA | 0.0763 |
| GATCACAC | -0.145 |
| GCTGTCAC | -0.0491 |
| CGGTTCCA | 0.0407 |
| AGGGTTTC | 0.114 |
| CACTCTAG | -0.189 |
| CCCGGAGG | -0.114 |
| AAACCACG | -0.0476 |
| CCCGAGAC | -0.0713 |
| GAAATTGC | 0.0231 |
| GGTTACAC | -0.0834 |
| ACCTGCAC | -0.0342 |
| CATATCGC | 0.0108 |
| GGGGGAAC | -0.182 |

| Sequence | PBM E-score |
| --- | --- |
| GAGTTGGA | 0.0912 |
| GACATCCA | 0.023 |
| GCCAATCA | -0.122 |
| GAGGCAGC | -0.136 |
| CGGTGGTA | -0.0749 |
| GTAGGTCA | -0.217 |
| ACACTCGC | 0.154 |
| CGCTAAGC | -0.152 |
| AGGACTGA | -0.158 |
| AGTCATTA | -0.227 |
| ACAGAGAC | 0.0205 |
| GTATGGGA | -0.19 |
| CGTGATAC | 0.0317 |
| AATGCGGC | 0.0831 |
| GGATCTCA | -0.271 |
| ATCAGATG | -0.0233 |
| GAACCCAA | -0.0682 |
| CCTCCCTC | 0.173 |
| GCAACTCC | -0.151 |
| ATTTGACG | 0.109 |
| CGTTTTAC | 0.199 |
| CCACCAGG | -0.219 |
| AGTAGGGC | -0.0895 |
| ACCCTTTG | 0.0136 |

| Sequence | PBM E-score |
| --- | --- |
| TAGTTCGA | 0.115 |
| AACGGGAT | 0.108 |
| CTATAAAC | 0.113 |
| CTACGCCC | -0.0276 |
| CTTAGGGC | -0.0561 |
| CAGTACGA | 0.0913 |
| CTAGATTA | -0.0366 |
| ACCGAAAC | 0.194 |
| TCCAACGA | -0.145 |
| ATGGTAGG | -0.123 |
| ATTGTGCC | -0.0274 |
| CAAAGTCG | 0.0234 |
| AGTGGTAG | -0.153 |
| GCGCGAAC | 0.0211 |
| AGTCATGA | -0.0513 |
| CTCCGTAC | -0.0963 |
| CGATAAAG | -0.0154 |
| ACACGCTA | 0.00885 |
| GCGACTTA | -0.128 |
| CCTGTCTC | -0.116 |
| AAGTGCAC | -0.0265 |
| AATAATAC | 0.198 |
| CAATGTAG | -0.0151 |
| GACGTAGA | -0.136 |
